Columns and labels:
[1] = biological target: T1, LX5140110 IgG1-TM; assay: competition ELISA: soluble LOX1 titrated against LX5140110 IgG1-TM (12.5 ng/mL) binding to coated biotinylated human LOX1
T1 construct: Whole human IgG1-TM (L234F/L235E/P331S); also called LOX514110; LOX514_110

[2] = biological target: T2, LX6960073_G82bS_gl IgG1-TM; assay: competition ELISA: soluble LOX1 titrated against LX6960073_G82bS_gl IgG1-TM (12.5 ng/mL) binding to coated biotinylated human LOX1
T2 construct: Whole human IgG1-TM, germlined, with heavy chain G82bS (Kabat); also called LOX10696_73
T2 sequence (VH, as listed by the source, chain 1 of 2): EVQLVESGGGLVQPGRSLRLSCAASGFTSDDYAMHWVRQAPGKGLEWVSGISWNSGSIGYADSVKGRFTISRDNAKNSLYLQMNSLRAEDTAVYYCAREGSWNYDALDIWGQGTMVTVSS
T2 sequence (VL, as listed by the source, chain 2 of 2): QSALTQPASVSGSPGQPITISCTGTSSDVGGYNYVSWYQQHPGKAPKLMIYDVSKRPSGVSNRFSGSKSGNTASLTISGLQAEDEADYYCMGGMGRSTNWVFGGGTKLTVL

T1 sequence (VH, as listed by the source, chain 1 of 2): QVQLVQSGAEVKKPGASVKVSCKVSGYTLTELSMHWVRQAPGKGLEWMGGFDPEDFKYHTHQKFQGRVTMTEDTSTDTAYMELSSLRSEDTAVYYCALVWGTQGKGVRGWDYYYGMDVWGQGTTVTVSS
T1 sequence (VL, as listed by the source, chain 2 of 2): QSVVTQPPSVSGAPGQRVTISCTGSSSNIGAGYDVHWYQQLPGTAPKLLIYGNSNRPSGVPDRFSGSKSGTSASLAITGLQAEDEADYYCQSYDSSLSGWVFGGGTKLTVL

B1: cynomolgus LOX1-(FlagHis) extracellular domain (receptor, not shown: small tags and cut ends)
chain: not shown
notes: extracellular domain; Made in HEK293 EBNA cells; also called cynoLOX1; cyLOX
[1]
  IC50: 44 nM
[2]
  IC50: 1.8 nM

Source: patent US20210347900A1 (AstraZeneca / MedImmune, published 2021)
